Changes are numbered by the printed parent chain; changes in the protein carry UniProt numbers. The list shows a part of the results.
T1: RBFOX1 RRM RbFoxmut (Fox-RRM*) (Homo sapiens, UniProt Q9NWB1 109-208, R118D;E147R;N151S;E152T)
T1 sequence: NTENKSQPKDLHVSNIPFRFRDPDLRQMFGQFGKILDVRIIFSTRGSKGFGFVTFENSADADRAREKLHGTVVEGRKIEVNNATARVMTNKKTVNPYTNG

B1: CCUAAAC (DNA:RNA)
RNA: GGGAGACCGGAAUUCAGAUUGUCCCCUAAACUUAAAUCCCGUCGUAGCCACCA
DNA 1: CAATCTGAATTCCGGTCTCCC
DNA 2: TGGTGGCTACGACGGGATT
B2: UUGAACA (DNA:RNA)
RNA: B1 RNA with C25U, C26U, U27G, A30C, C31A
DNA 1: CAATCTGAATTCCGGTCTCCC
DNA 2: TGGTGGCTACGACGGGATT
B3: CGAAGAA (DNA:RNA)
RNA: B1 RNA with C26G, U27A, A29G, C31A
DNA 1: CAATCTGAATTCCGGTCTCCC
DNA 2: TGGTGGCTACGACGGGATT
B4: AUUUCCA (DNA:RNA)
RNA: B1 RNA with C25A, C26U, A28U, A29C, A30C, C31A
DNA 1: CAATCTGAATTCCGGTCTCCC
DNA 2: TGGTGGCTACGACGGGATT
B5: GGCUAGC (DNA:RNA)
RNA: B1 RNA with C25G, C26G, U27C, A28U, A30G
DNA 1: CAATCTGAATTCCGGTCTCCC
DNA 2: TGGTGGCTACGACGGGATT
B6: ACACUAA (DNA:RNA)
RNA: B1 RNA with C25A, U27A, A28C, A29U, C31A
DNA 1: CAATCTGAATTCCGGTCTCCC
DNA 2: TGGTGGCTACGACGGGATT
B7: GGGGUGC (DNA:RNA)
RNA: B1 RNA with C25G, C26G, U27G, A28G, A29U, A30G
DNA 1: CAATCTGAATTCCGGTCTCCC
DNA 2: TGGTGGCTACGACGGGATT
B8: GGCUUAA (DNA:RNA)
RNA: B1 RNA with C25G, C26G, U27C, A28U, A29U, C31A
DNA 1: CAATCTGAATTCCGGTCTCCC
DNA 2: TGGTGGCTACGACGGGATT
B9: UCAUAAA (DNA:RNA)
RNA: B1 RNA with C25U, U27A, A28U, C31A
DNA 1: CAATCTGAATTCCGGTCTCCC
DNA 2: TGGTGGCTACGACGGGATT
B10: AUAACGG (DNA:RNA)
RNA: B1 RNA with C25A, C26U, U27A, A29C, A30G, C31G
DNA 1: CAATCTGAATTCCGGTCTCCC
DNA 2: TGGTGGCTACGACGGGATT
B11: AUUAAAC (DNA:RNA)
RNA: B1 RNA with C25A, C26U
DNA 1: CAATCTGAATTCCGGTCTCCC
DNA 2: TGGTGGCTACGACGGGATT
B12: CUGACAC (DNA:RNA)
RNA: B1 RNA with C26U, U27G, A29C
DNA 1: CAATCTGAATTCCGGTCTCCC
DNA 2: TGGTGGCTACGACGGGATT
B13: GUUAACG (DNA:RNA)
RNA: B1 RNA with C25G, C26U, A30C, C31G
DNA 1: CAATCTGAATTCCGGTCTCCC
DNA 2: TGGTGGCTACGACGGGATT
B14: AUCCGGU (DNA:RNA)
RNA: GGGAGACCGGAAUUCAGAUUGUCCAUCCGGUUUAAAUCCCGUCGUAGCCACCA
DNA 1: CAATCTGAATTCCGGTCTCCC
DNA 2: TGGTGGCTACGACGGGATT
B15: AGAGAAC (DNA:RNA)
RNA: B1 RNA with C25A, C26G, U27A, A28G
DNA 1: CAATCTGAATTCCGGTCTCCC
DNA 2: TGGTGGCTACGACGGGATT
B16: UGCCCGA (DNA:RNA)
RNA: B14 RNA with A25U, U26G, G29C, U31A
DNA 1: CAATCTGAATTCCGGTCTCCC
DNA 2: TGGTGGCTACGACGGGATT
B17: UUGUGUU (DNA:RNA)
RNA: B14 RNA with A25U, C27G, C28U, G30U
DNA 1: CAATCTGAATTCCGGTCTCCC
DNA 2: TGGTGGCTACGACGGGATT
B18: UUAUGUC (DNA:RNA)
RNA: B14 RNA with A25U, C27A, C28U, G30U, U31C
DNA 1: CAATCTGAATTCCGGTCTCCC
DNA 2: TGGTGGCTACGACGGGATT
B19: CCGUGUU (DNA:RNA)
RNA: B14 RNA with A25C, U26C, C27G, C28U, G30U
DNA 1: CAATCTGAATTCCGGTCTCCC
DNA 2: TGGTGGCTACGACGGGATT
B20: GCGAAUA (DNA:RNA)
RNA: B1 RNA with C25G, U27G, A30U, C31A
DNA 1: CAATCTGAATTCCGGTCTCCC
DNA 2: TGGTGGCTACGACGGGATT

target: T1, RBFOX1 RRM RbFoxmut (Fox-RRM*); test: EMSA; HiTS-Eq, 1 nM pool, 10 min; buffer printed only for the single-RNA assays: 10 mM Tris pH 7.5, 150 mM NaCl, 3.4 mM EDTA, 0.001% NP-40, 30 C; conditions: tags: His6 N-terminal (pET28a); label: 5' 32P
In short: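 Purified RbFox RRM (wild type or mutant) was equilibrated for 10 min in 50 µL with 1 nM of a 5′-radiolabelled pool of RNA with 7 randomized nucleotides, its flanks annealed to DNA oligonucleotides, across increasing protein concentrations. Free RNA was separated by 8% native PAGE, excised, reverse-transcribed, PCR-barcoded and sequenced on an Illumina HiSeq 2500. Relative association constants came from read-count changes of each variant against the control reaction, normalised to the cognate motif.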

Binder | binding signal
B1 | 0.0722 KA relative to UGCAUGU
B2 | 0.0696 KA relative to UGCAUGU
B3 | 0.117 KA relative to UGCAUGU
B4 | 0.0958 KA relative to UGCAUGU
B5 | 0.0943 KA relative to UGCAUGU
B6 | 0.112 KA relative to UGCAUGU
B7 | 0.189 KA relative to UGCAUGU
B8 | 0.0673 KA relative to UGCAUGU
B9 | 0.108 KA relative to UGCAUGU
B10 | 0.065 KA relative to UGCAUGU
B11 | 0.0877 KA relative to UGCAUGU
B12 | 0.0613 KA relative to UGCAUGU
B13 | 0.111 KA relative to UGCAUGU
B14 | 0.0795 KA relative to UGCAUGU
B15 | 0.103 KA relative to UGCAUGU
B16 | 0.129 KA relative to UGCAUGU
B17 | 0.162 KA relative to UGCAUGU
B18 | 0.185 KA relative to UGCAUGU
B19 | 0.0949 KA relative to UGCAUGU
B20 | 0.137 KA relative to UGCAUGU

Source: paper PMC9911399, “Two distinct binding modes provide the RNA-binding protein RbFox with extraordinary sequence specificity”
